# Residue numbers refer to the chain shown, from its start. This is one part of the list.
# T1: RBFOX1 RRM (Homo sapiens, UniProt Q9NWB1 109-208)
# T1 sequence: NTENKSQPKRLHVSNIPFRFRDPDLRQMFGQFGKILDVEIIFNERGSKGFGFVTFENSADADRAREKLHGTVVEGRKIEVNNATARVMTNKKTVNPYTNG
# B1: UAAAAAA (DNA:RNA)
# RNA: GGGAGACCGGAAUUCAGAUUGUCCUAAAAAAUUAAAUCCCGUCGUAGCCACCA
# DNA 1: CAATCTGAATTCCGGTCTCCC
# DNA 2: TGGTGGCTACGACGGGATT
# B2: GAUCUAC (DNA:RNA)
# RNA: B1 RNA with U25G, A27U, A28C, A29U, A31C
# DNA 1: CAATCTGAATTCCGGTCTCCC
# DNA 2: TGGTGGCTACGACGGGATT
# B3: CUCCUGC (DNA:RNA)
# RNA: GGGAGACCGGAAUUCAGAUUGUCCCUCCUGCUUAAAUCCCGUCGUAGCCACCA
# DNA 1: CAATCTGAATTCCGGTCTCCC
# DNA 2: TGGTGGCTACGACGGGATT
# B4: UAACGUA (DNA:RNA)
# RNA: B1 RNA with A28C, A29G, A30U
# DNA 1: CAATCTGAATTCCGGTCTCCC
# DNA 2: TGGTGGCTACGACGGGATT
# B5: AUCUAUU (DNA:RNA)
# RNA: B3 RNA with C25A, C28U, U29A, G30U, C31U
# DNA 1: CAATCTGAATTCCGGTCTCCC
# DNA 2: TGGTGGCTACGACGGGATT
# B6: UUGGGUU (DNA:RNA)
# RNA: B3 RNA with C25U, C27G, C28G, U29G, G30U, C31U
# DNA 1: CAATCTGAATTCCGGTCTCCC
# DNA 2: TGGTGGCTACGACGGGATT
# B7: AUCUCAG (DNA:RNA)
# RNA: B3 RNA with C25A, C28U, U29C, G30A, C31G
# DNA 1: CAATCTGAATTCCGGTCTCCC
# DNA 2: TGGTGGCTACGACGGGATT
# B8: ACGCUGG (DNA:RNA)
# RNA: B3 RNA with C25A, U26C, C27G, C31G
# DNA 1: CAATCTGAATTCCGGTCTCCC
# DNA 2: TGGTGGCTACGACGGGATT
# B9: UGUAAUA (DNA:RNA)
# RNA: B1 RNA with A26G, A27U, A30U
# DNA 1: CAATCTGAATTCCGGTCTCCC
# DNA 2: TGGTGGCTACGACGGGATT
# B10: ACAUAAA (DNA:RNA)
# RNA: B1 RNA with U25A, A26C, A28U
# DNA 1: CAATCTGAATTCCGGTCTCCC
# DNA 2: TGGTGGCTACGACGGGATT
# B11: AGUGACG (DNA:RNA)
# RNA: B1 RNA with U25A, A26G, A27U, A28G, A30C, A31G
# DNA 1: CAATCTGAATTCCGGTCTCCC
# DNA 2: TGGTGGCTACGACGGGATT
# B12: UCUCAGA (DNA:RNA)
# RNA: B1 RNA with A26C, A27U, A28C, A30G
# DNA 1: CAATCTGAATTCCGGTCTCCC
# DNA 2: TGGTGGCTACGACGGGATT
# B13: GCUCGAU (DNA:RNA)
# RNA: B3 RNA with C25G, U26C, C27U, U29G, G30A, C31U
# DNA 1: CAATCTGAATTCCGGTCTCCC
# DNA 2: TGGTGGCTACGACGGGATT
# B14: GGCUAAC (DNA:RNA)
# RNA: B3 RNA with C25G, U26G, C28U, U29A, G30A
# DNA 1: CAATCTGAATTCCGGTCTCCC
# DNA 2: TGGTGGCTACGACGGGATT
# B15: UACGGCA (DNA:RNA)
# RNA: B1 RNA with A27C, A28G, A29G, A30C
# DNA 1: CAATCTGAATTCCGGTCTCCC
# DNA 2: TGGTGGCTACGACGGGATT
# B16: CAGAGAU (DNA:RNA)
# RNA: B1 RNA with U25C, A27G, A29G, A31U
# DNA 1: CAATCTGAATTCCGGTCTCCC
# DNA 2: TGGTGGCTACGACGGGATT
# B17: GGCUGUC (DNA:RNA)
# RNA: B3 RNA with C25G, U26G, C28U, U29G, G30U
# DNA 1: CAATCTGAATTCCGGTCTCCC
# DNA 2: TGGTGGCTACGACGGGATT
# B18: ACAGACC (DNA:RNA)
# RNA: B1 RNA with U25A, A26C, A28G, A30C, A31C
# DNA 1: CAATCTGAATTCCGGTCTCCC
# DNA 2: TGGTGGCTACGACGGGATT
# B19: CUGCGUG (DNA:RNA)
# RNA: B3 RNA with C27G, U29G, G30U, C31G
# DNA 1: CAATCTGAATTCCGGTCTCCC
# DNA 2: TGGTGGCTACGACGGGATT
# B20: GUGUCGG (DNA:RNA)
# RNA: B3 RNA with C25G, C27G, C28U, U29C, C31G
# DNA 1: CAATCTGAATTCCGGTCTCCC
# DNA 2: TGGTGGCTACGACGGGATT
# Molecular target: T1, RBFOX1 RRM
# Test: EMSA; HiTS-Eq, 1 nM pool, 10 min; buffer printed only for the single-RNA assays: 10 mM Tris pH 7.5, 150 mM NaCl, 3.4 mM EDTA, 0.001% NP-40, 30 C
# Conditions: tags: His6 N-terminal (pET28a); label: 5' 32P
# Procedure, shortened: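 These values rest on relative association constants, computed from read-count changes of each RNA species versus the control reaction and normalised to the cognate motif. Reads came from free RNA recovered by 8% native PAGE after purified RbFox RRM (wild type or mutant) at increasing concentrations was equilibrated for 10 min in 50 µL with 1 nM of a 5′-radiolabelled pool with 7 randomized nucleotides and DNA-annealed flanks.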
row,Binder,binding signal
1,B1,0.000646 KA relative to UGCAUGU
2,B2,0.00647 KA relative to UGCAUGU
3,B3,0.0112 KA relative to UGCAUGU
4,B4,0.00685 KA relative to UGCAUGU
5,B5,0.00191 KA relative to UGCAUGU
6,B6,0.0251 KA relative to UGCAUGU
7,B7,0.00642 KA relative to UGCAUGU
8,B8,0.0175 KA relative to UGCAUGU
9,B9,0.0113 KA relative to UGCAUGU
10,B10,0.000598 KA relative to UGCAUGU
11,B11,0.00834 KA relative to UGCAUGU
12,B12,0.0123 KA relative to UGCAUGU
13,B13,0.0216 KA relative to UGCAUGU
14,B14,0.00732 KA relative to UGCAUGU
15,B15,0.0139 KA relative to UGCAUGU
16,B16,0.00605 KA relative to UGCAUGU
17,B17,0.0306 KA relative to UGCAUGU
18,B18,0.000333 KA relative to UGCAUGU
19,B19,0.035 KA relative to UGCAUGU
20,B20,0.0152 KA relative to UGCAUGU
